In publication PMC4336329 (PLoS ONE, 2015):
About 2,200 (0.71%) of roughly 310,000 compounds showed an effect of 50% or more. Effects have a minus sign here. Some of the results follow.

target: human ether-à-go-go-related gene (hERG) potassium channel (human, UniProt Q12809); test: primary screen, population patch clamp on CHO cells stably expressing hERG
Sequence (Q12809 whole entry, looked up): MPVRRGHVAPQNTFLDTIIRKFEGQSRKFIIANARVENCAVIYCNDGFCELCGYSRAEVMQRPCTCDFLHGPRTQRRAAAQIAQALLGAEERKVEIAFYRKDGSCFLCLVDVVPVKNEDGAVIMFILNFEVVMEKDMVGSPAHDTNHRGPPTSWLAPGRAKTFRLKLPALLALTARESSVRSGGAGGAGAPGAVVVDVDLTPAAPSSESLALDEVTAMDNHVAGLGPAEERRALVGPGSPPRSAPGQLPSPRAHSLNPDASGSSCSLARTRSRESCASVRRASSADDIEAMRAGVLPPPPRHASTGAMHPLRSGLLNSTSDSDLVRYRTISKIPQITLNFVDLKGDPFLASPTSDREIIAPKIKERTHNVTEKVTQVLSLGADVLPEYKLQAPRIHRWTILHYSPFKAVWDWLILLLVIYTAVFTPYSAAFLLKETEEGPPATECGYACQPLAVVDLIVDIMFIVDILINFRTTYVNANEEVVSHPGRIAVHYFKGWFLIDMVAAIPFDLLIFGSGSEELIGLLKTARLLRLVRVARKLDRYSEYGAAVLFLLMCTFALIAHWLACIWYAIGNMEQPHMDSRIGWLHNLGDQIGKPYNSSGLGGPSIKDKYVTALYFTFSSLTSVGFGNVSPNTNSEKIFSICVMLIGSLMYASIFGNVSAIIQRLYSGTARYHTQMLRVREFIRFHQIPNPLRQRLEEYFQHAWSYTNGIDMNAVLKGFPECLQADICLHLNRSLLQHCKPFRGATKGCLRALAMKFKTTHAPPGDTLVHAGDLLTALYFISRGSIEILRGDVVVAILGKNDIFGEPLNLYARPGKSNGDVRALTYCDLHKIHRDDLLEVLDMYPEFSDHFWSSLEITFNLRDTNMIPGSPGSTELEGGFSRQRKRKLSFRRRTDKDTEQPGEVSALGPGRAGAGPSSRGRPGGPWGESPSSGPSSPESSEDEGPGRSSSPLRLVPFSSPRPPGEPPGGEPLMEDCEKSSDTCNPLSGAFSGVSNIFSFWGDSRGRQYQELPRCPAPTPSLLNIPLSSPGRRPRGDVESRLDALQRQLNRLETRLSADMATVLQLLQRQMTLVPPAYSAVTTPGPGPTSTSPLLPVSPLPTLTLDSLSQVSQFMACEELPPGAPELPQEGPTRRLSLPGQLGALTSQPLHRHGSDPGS

Structure (SMILES) | hERG current change (%, negative = inhibition) at 1uM
Cn1c(-c2cccc(F)c2)nc2c1c(=O)[nH]c(=O)n2Cc1ccccc1 | 17.2%
Cc1ccc(S(=O)(=O)N2CCOCC2)cc1NC(=O)CSc1nnc(N)s1 | 21%
CCCNC(=S)N1CCC(NC(=O)C2CCCCC2)CC1 | 18.5%
CN(C)c1ccc(C(CNC(=O)c2ccc(-c3ccccc3)cc2)N2CCOCC2)cc1 (stereo not drawn) | 8.46%
Cc1cccc2[nH]c3c(N4CCN(C(=O)c5ccco5)CC4)ncnc3c12 | -5.77%
Cc1cnc(CN(C)C(=O)c2cc(COc3c(F)cccc3F)on2)[nH]1 | -7.52%
CNC(=S)N1N=C(c2ccc(Br)cc2)CC1c1ccc(N(C)C)cc1 (stereo not drawn) | 11.1%
COc1ccc(OC)c(CNC(=O)CCS(=O)(=O)c2ccc3c(c2)oc(=O)n3C)c1 | 11.6%
COc1ccc(OC)c(/C=N/NC(=O)CC2C(=O)NN=C2C)c1 (stereo not drawn) | 9.14%
O=C(NCc1ccncc1)c1cccc(S(=O)(=O)NCc2ccccc2)c1 | 1.41%
Cc1ccc(NC(=O)CN2CCc3ccccc3C2)cc1C | 14%
CCNc1nc(NC(C)CC)nc(ON=C(C)C)n1 (stereo not drawn) | 9.5%
O=c1c(Cc2ccc(Cl)cc2)c(O)ccn1Cc1ccncc1 | 9.77%
COc1ccc(OC(=O)c2cc(S(=O)(=O)N3CCCC3)ccc2Cl)cc1 | 6.02%
CCN=C1SC(CC(=O)Nc2sc3c(c2C#N)CCCC3)C(=O)N1CC (stereo not drawn) | -7.54%
COc1cc(C(=O)OCc2ccccc2C#N)ccc1OCC(=O)N1CCOCC1 | -2.55%
O=C(NCCC1=CCCCC1)C1CCCN(S(=O)(=O)c2ccc(F)cc2)C1 (stereo not drawn) | 16.8%
O=C(NC1CC1)c1cc2cc(Br)ccc2s1 | 14.7%
Cc1c(OC(C(=O)O)c2ccccc2)ccc2c1oc(=O)c1ccccc12 (stereo not drawn) | 16.6%
COc1ccc(C(C(=O)NC2CCCC2)N2CCc3ccccc32)cc1 (stereo not drawn) | 14.5%
CCOc1ccc(C(=O)SC2=NCCS2)cc1 | 12.4%
O=C(CCNc1n[nH]c(=O)[nH]c1=O)N1CCCCC1 | 1.63%
CCOc1ccc(S(=O)(=O)N2CCOCC2)c2ccccc12 | 14.9%

Structure (SMILES) | hERG current change (%, negative = inhibition) at 1uM
Cc1cccc(N2CCN(CCCNC(=O)C3CCCN(c4ncnc5c4nc4n5CCCCC4)C3)CC2C)c1 (stereo not drawn) | -17%
O=C(N/N=C/c1ccc2cccnc2c1)c1nc2ccccc2c(=O)[nH]1 | 6.13%
O=C1CCN(S(=O)(=O)c2ccccc2)N1 | 11.8%
O=C(O)CCCC(=O)Nc1ccc(C(=O)N2CCCCC2)cc1 | 13%
Cc1cc(C(F)(F)F)c(C#N)c(N2CCOCC2)n1 | 0.286%
COc1ccc(N2Cc3ccccc3C2=NC(=O)c2ccc(C)cc2)cc1OC | 13.6%
CC1CN(S(=O)(=O)c2cccc(C(=O)NCC3COc4ccccc4O3)c2)CC(C)O1 (stereo not drawn) | 0.895%
CCOC(=O)CSc1nc(-c2ccccc2)nc2ccccc12 | 9.83%
CC(=O)NC(CC(=O)NCC(c1ccco1)N(C)C)c1ccccc1 (stereo not drawn) | 7.6%
CCCn1c(NCc2cc(OC)ccc2OC)nc2ccccc21 | -19.7%
COc1ccc2[nH]cc(S(=O)(=O)c3ccc(C(C)C)cc3)c(=O)c2c1 | 13.6%
CC/C=C/C(=O)N1CC2(CC(c3cccc(NC(=O)CC(c4ccccc4)c4ccccc4)c3)=NO2)C[C@@H]1C(N)=O (stereo partly drawn) | 15.5%
O=C(OCCN1C(=O)c2cccc3c(N4CCOCC4)ccc(c23)C1=O)c1ccc(Cl)cc1Cl | 11.4%
Cn1nc(C(F)(F)F)cc1C(=O)O | 17.3%
CCc1ccc(NC(=O)C(C)OC(=O)c2ccc(NS(=O)(=O)c3ccc(C)c([N+](=O)[O-])c3)cc2)cc1 (stereo not drawn) | 6.26%
CCOC(=O)C(=CNc1cc(C)nn1-c1ccc(Cl)cc1)C(=O)OCC | 19.5%
CCn1cc(CN2CCCC(CNS(=O)(=O)Cc3ccccc3)C2)cn1 (stereo not drawn) | 2.78%
COc1ccc(S(=O)(=O)N2CCCc3ccccc32)cc1[N+](=O)[O-] | 9.51%
O=[N+]([O-])c1cccc(N=Cc2sc3ccccc3c2O)c1 | 9.85%
Cl.Nc1ccc(N)c(C(=O)O)c1 | 13.5%
O=C(NCC1CC1)Nc1ccccc1F | 9.92%
CCOc1ccccc1NC1=CC(=O)CC(c2ccccc2)C1 (stereo not drawn) | -0.759%
